Hit rate of the full screen: of about 310,000 compounds, about 2,200 (0.71%) showed an effect of 50% or more. Effects have a minus sign here. The list shows a part of the results.
These compounds were tested against human ether-à-go-go-related gene (hERG) potassium channel (human, UniProt Q12809) (assay: primary screen, population patch clamp on CHO cells stably expressing hERG).
Sequence of human ether-à-go-go-related gene (hERG) potassium channel (Q12809 whole entry, looked up): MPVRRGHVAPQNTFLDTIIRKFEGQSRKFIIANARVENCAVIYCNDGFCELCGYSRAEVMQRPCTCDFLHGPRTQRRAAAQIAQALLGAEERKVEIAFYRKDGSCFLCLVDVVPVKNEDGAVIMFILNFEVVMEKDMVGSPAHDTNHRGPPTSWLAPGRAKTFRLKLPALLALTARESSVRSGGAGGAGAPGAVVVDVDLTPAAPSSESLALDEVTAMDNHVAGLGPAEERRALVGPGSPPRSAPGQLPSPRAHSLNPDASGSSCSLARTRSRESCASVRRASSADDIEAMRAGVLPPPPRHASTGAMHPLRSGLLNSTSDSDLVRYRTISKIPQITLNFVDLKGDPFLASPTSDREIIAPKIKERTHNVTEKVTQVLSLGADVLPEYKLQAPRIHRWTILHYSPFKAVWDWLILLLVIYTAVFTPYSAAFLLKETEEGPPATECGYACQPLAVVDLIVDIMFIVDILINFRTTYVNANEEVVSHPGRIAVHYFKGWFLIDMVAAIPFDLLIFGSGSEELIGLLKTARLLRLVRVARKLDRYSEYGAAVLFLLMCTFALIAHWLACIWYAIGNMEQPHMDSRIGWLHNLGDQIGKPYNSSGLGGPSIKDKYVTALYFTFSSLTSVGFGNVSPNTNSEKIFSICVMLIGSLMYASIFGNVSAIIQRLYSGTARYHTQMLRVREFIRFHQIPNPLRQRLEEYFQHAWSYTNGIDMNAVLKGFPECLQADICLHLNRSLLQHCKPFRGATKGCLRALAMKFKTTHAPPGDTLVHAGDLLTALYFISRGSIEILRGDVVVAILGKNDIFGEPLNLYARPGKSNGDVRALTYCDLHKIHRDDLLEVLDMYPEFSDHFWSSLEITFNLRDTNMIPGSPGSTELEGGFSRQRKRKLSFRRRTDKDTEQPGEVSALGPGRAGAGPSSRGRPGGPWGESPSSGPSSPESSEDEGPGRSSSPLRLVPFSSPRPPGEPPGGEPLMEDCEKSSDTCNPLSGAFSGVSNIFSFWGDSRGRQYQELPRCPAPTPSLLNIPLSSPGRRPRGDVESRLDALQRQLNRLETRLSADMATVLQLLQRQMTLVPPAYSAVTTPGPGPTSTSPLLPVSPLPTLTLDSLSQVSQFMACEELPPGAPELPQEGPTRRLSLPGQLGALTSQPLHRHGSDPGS

| SMILES | hERG current change (%, negative = inhibition) at 1uM |
| --- | --- |
| CN(Cc1nc(-c2cnccn2)no1)CC1CCN(Cc2ccccc2)CC1 | 1.08% |
| N#CC(C#N)=CN=c1ccn(Cc2ccc(Cl)cc2Cl)cc1 | 11.6% |
| COc1ccc(CC(=O)Oc2ccc(C#N)cc2)cc1 | 17.9% |
| C[C@]1(C(=O)NCCc2c[nH]c3ccccc23)C=C[C@@H](Cc2ccccc2)N1C(=O)c1ccccc1 | 7.98% |
| CC(C)(C)NC(=O)NC(=O)CN1CCc2ccccc21 | 3.59% |
| Cc1cc(C)nc(N/N=C/c2ccccc2)n1 | 4.71% |
| Cc1noc(NC(=O)c2ccccc2Cl)c1C#N | 7.33% |
| Cc1ccc(-c2ccc([C@H]3[C@@H]4C=CCC[C@@]4(C)C(=O)N3Cc3ccccc3)c(F)c2)cc1 | 12.2% |
| OC(CNC1Cc2ccccc2C1)c1ccccc1 (stereo not shown) | 10.3% |
| Cc1ccc(C(=O)Nc2ccccc2C(=O)NC(CC(=O)O)C(=O)O)cc1 (stereo not shown) | 1.68% |
| O=C(COC(=O)c1ccc([N+](=O)[O-])o1)Nc1cccc2ccccc12 | 15.1% |
| CN(CC(=O)Nc1cccc(S(=O)(=O)NC2=NCCC2)c1)Cc1cccc(F)c1 | 6.3% |
| CCOC(=O)N1CCN(c2ccccc2O)CC1 | 3% |
| COc1cc(C(=O)N2CCCN(c3nc4cc(C)ccc4cc3C#N)CC2)cc(OC)c1OC | -11.6% |
| Cc1cc(NC(=O)c2cc3ccccc3o2)cc(C)c1OCC(=O)N1CCOCC1 | -9.6% |
| CCCN(CC(=O)Nc1ccccc1OC)C(=O)CSC(=S)N1CCCC1 | -10.8% |
| O=C(CCC(=O)N(CC(=O)NC1CCCCC1)Cc1ccccc1)Nc1nccs1 | 16.8% |
| CCCCN(CCCC)c1nc2ccccc2nc1C(C#N)C(=O)NCCCOC (stereo not shown) | 8.02% |
| COc1ccc(NC(=O)COC(=O)COc2cccc(Br)c2)cc1OC | 11.2% |
| CCOC(=O)COc1ccc(S(=O)(=O)NC2CC2)cc1 | 18.9% |
| CCN(CC)c1ccc(CNc2ccc3c(c2)ncn3C(C)(C)C)cc1 | 13.3% |
| O=C(N=Nc1c(O)[nH]c2ccccc12)c1ccccc1NS(=O)(=O)c1cccs1 | 3.11% |

| SMILES | hERG current change (%, negative = inhibition) at 1uM |
| --- | --- |
| NS(=O)(=O)c1cc(C(=O)NCCOc2ccccc2)c(Cl)cc1Cl | 16.7% |
| Cc1cc(C)c(NC(=O)Cn2nnc(C(=O)NCCc3ccccc3)c2N)c(C)c1 | 11.2% |
| O=C(COc1ccc(Cl)cc1)N1CCN(C(=O)c2cccs2)CC1 | -23.8% |
| CCc1ccc(NC(=O)CC2C(=O)N(c3ccc(OC)cc3)C(=O)N2CCOC)cc1 (stereo not shown) | 3.77% |
| O=C(/C=C/c1ccccc1)C1=C(O)C(=O)N(CCO)C1c1ccccc1[N+](=O)[O-] (stereo not shown) | 11.9% |
| O=C(Cn1ncc2c(=O)oc3ccccc3c21)NCCc1ccsc1 | -3.1% |
| Cc1ccccc1C(OCCN(C(C)C)C(C)C)c1ccccc1.O=C(O)/C=C\C(=O)O (stereo not shown) | -38.4% |
| COc1ccc2c(c1OC)C(=O)N(c1cccc(C)c1)C2 | 4.4% |
| COCCCN(C(=S)Nc1cc(C)cc(C)c1)C(C)c1ccncc1 (stereo not shown) | -26.1% |
| Cc1cc(OCC(=O)OCC(=O)NCCN2C(=O)CSC2=O)ccc1Cl | 10.2% |
| O=C(O)C(Cc1ccccc1)N1C(=O)CCC1=O (stereo not shown) | 13.2% |
| Cc1[nH]n(-c2ccccc2)c(=S)c1C=Nc1ccc([N+](=O)[O-])cc1 | 15.8% |
| O=C(/C=C/c1ccco1)N1CCN(S(=O)(=O)c2ccc(F)c(F)c2F)CC1 | 1.12% |
| CCOC(=O)/C(=C\c1ccc(OC(F)F)cc1)C1=Nn2c(nnc2-c2ccc(Cl)cc2)SC1 | 13.3% |
| COCCNC(=O)CCCn1c(=O)c2cc(OC)c(OC)cc2n(CC(=O)Nc2ccccc2OC)c1=O | 8.78% |
| O=C(Cn1nnc2ccccc21)OCC(=O)c1ccccc1 | 12.6% |
| O=C(O)C(=O)O.c1ccc(-c2ccccc2OCCOCCN2CCNCC2)cc1 | 9.05% |
| Cc1ccc(S(=O)(=O)NCc2cccnc2)cc1 | 13% |
| CC(C)(C)c1ccc(C2=NC(=O)C(CC(=O)O)S2)cc1 (stereo not shown) | 18.2% |
| CC1=C(C(=O)Nc2cc(C)ccc2C)C(c2cccs2)NC(=S)N1 (stereo not shown) | 9.49% |
| COc1cnc(-c2ccccn2)nc1Oc1ccccc1Cl | 20.4% |
| Cc1cc(C)cc(OCC(=O)NCCN2CCOCC2)c1 | 2.67% |

| SMILES | hERG current change (%, negative = inhibition) at 1uM |
| --- | --- |
| CCCCCCC(=O)N1C/C=C\C(c2ccc(OC)cc2)N(Cc2ccc(F)cc2)C(=O)[C@H]1Cc1ccccc1 (stereo partly shown) | 2.56% |
| CCSc1nc2c(cnn2-c2ccc(C)cc2)c(=O)[nH]1 | 12.9% |
| CNc1nc(OC)nc(N2CCOCC2)n1 | 10.7% |
| CC1CN(C(=O)C2CC(=O)N(c3ccc(Cl)cc3)C2)CC(C)O1 (stereo not shown) | 2.47% |
| Cc1noc(C)c1CSc1ccccc1C(=O)O | 17.6% |
| CN(CCOc1ccc(Cl)cc1)C(=O)c1ccccc1SCC(=O)N1CCCC1 | -0.619% |
| COc1ccc(CCNC(=S)N2CCN(S(=O)(=O)c3ccccc3)CC2)cc1 | 10.2% |
| Cc1ccc(COC(=O)c2ccc3c(c2)C(=O)N(CCCN2CCOCC2)C3=O)cc1 | 7.6% |
| C=CCN1N=C(c2ccc(Cl)s2)CSC1=O | 22.3% |
| COc1ccccc1NS(=O)(=O)c1cc(NC(=O)CCC2CCCC2)ccc1N1CCOCC1 | 9.04% |
| O=C(COC(=O)COc1cccc2ccccc12)NCC(F)(F)F | 7.55% |
| Cc1cc(C)c2nc(SCC(=O)Nc3ccc(S(=O)(=O)N4CCCC4)cc3)c(C)cc2c1 | -3.94% |
| Cc1ccc(Nc2nc3ccccc3n3cnnc23)c(Cl)c1 | 8.03% |
| COc1ccccc1NC(=O)CN1CCN(c2ccccc2)CC1 | 12.4% |
| CCCCC(=O)Nc1ccc(C(=O)NCCCn2ccnc2)cc1 | -5.79% |
| O=C(COCc1cc(-c2cccs2)on1)NC1CCCCC1 | 18.4% |
| O=C(Nc1ccc2c(c1)CCCN2C(=O)c1cccs1)c1c(F)cccc1Cl | 10.5% |
| CCCC[n+]1cc(=N)o[n-]1.Cl | 6.54% |
| CC(C)CC(N=Cc1c(O)c2ccccc2oc1=O)C(=O)O (stereo not shown) | 11.1% |
| COc1cccc(-c2nnc(SCCC(=O)O)n2C)c1 | 5.01% |
| C[C@H](NC(=O)c1nc[nH]c1C(=O)N[C@@H](Cc1ccccc1)C(=O)OCc1ccccc1)C(=O)OC(C)(C)C | 10.7% |
| CCOC(=O)Cn1nc(CC)c2ccccc2c1=O | -4.77% |

| SMILES | hERG current change (%, negative = inhibition) at 1uM |
| --- | --- |
| COc1ccc(C(=O)N2CCC(C(=O)N3CCN(Cc4ccccc4)CC3)CC2)cc1 | 11.8% |
| CCOC(=O)c1c(NC(=O)COc2ncnc3ccccc23)sc(C(C)=O)c1C | 0.839% |
| CCC(=O)Nc1nonc1-c1nc2ccccc2n1N(C(=O)CC)C(=O)CC | 11.4% |
| COc1ccccc1NC(=O)c1ccc(S(=O)(=O)N(C)c2ccccc2)cc1 | 4.53% |
| COCCCN1C(=O)c2ccc(C(=O)OCC(=O)N(CCC#N)c3cc(C)cc(C)c3)cc2C1=O | -1.58% |
| Cc1[nH]nc2c1C1(CCN(C(=O)OCc3ccccc3)CC1)C(C#N)=C(N)O2 | 3.17% |
| Cc1cccc(NC(=O)Cn2c([N+](=O)[O-])cnc2C)c1C | 13.1% |
| Cc1cc([N+](=O)[O-])cc(C)c1OCC(=O)N/N=C/c1ccc(OC(=O)c2ccccc2Br)cc1 | 7.4% |
| N#Cc1ccc(/C=N/N=C(N)N)cc1 | 1.69% |
| C=CCN1CCN(C(CCC)c2nnnn2Cc2ccco2)CC1 (stereo not shown) | 17.6% |
| COc1ccc(N/N=C(\C=N\O)C(=O)c2ccc(OC)cc2)cc1 | 0.602% |
| Cc1nn(CCc2nn[nH]n2)c2nc(-c3ccc(C4CCCCC4)cc3)cc(C(F)(F)F)c12 | 4.58% |
| Cc1cc2cc(C)c3nnc(SCC(=O)NCc4ccco4)n3c2cc1C | -5.49% |
| COC(=O)c1ccc(C2/C(=C(/O)c3ccc4c(c3)CC(C)O4)C(=O)C(=O)N2Cc2cccnc2)cc1 (stereo not shown) | 13.5% |
| CCc1ccc(CNc2ccc3c(c2)ncn3C(C)(C)C)cc1 | 8.57% |
| Cl.Oc1ccc(Cl)cc1CNCC1CCCCC1 | 13% |
| Cc1ccccc1-n1c(-c2cccnc2)n[nH]c1=S | 8.97% |
| Cc1ccc([N+](=O)[O-])cc1Nc1nc(N2CCCC2)nc(N2CCCC2)n1 | 19% |
| Cc1cc(/C=C(\C#N)C(=O)O)c(C)n1CCC(C)C | 10.9% |
| c1c2c(cc3sc(N4CCOCC4)nc13)OCCO2 | 1.67% |
| Cc1cccc(NC(=O)c2cccc(NC(=O)c3ccccc3)c2)n1 | -6.12% |
| O=C(NCC(=O)N(c1cccnc1)C(C(=O)NC1CCCC1)c1ccco1)c1cccs1 (stereo not shown) | 9.13% |

Source: paper PMC4336329 (PLoS ONE, 2015)
